Assay results as given in a collection of fitness landscapes (doi:10.1126/science.1257360).
The list shows a part of the results.

B1: PhoQ; a variant is named by its letters at X, in order, P23837 (parent)
chain: MKKLLRLFFPLSLRVRFLLATAAVVLVLSLAYGMVALIGYSVSFDKTTFRLLRGESNLFYTLAKWENNKLHVELPENIDKQSPTMTLIYDENGQLLWAQRDVPWLMKMIQPDWLKSNGFHEIEADVNDTSLLLSGDHSIQQQLQEVREDDDDAEMTHSVAVNVYPATSRMPKLTIVVVDTIPVELKSSYMVWSWFIYVLSANLLLVIPLLWVAAWWSLRPIEALAKEVRELEEHNRELLNPATTRELTSLVRNLNRLLKSERERYDKYRTTLTDLTHSLKTPLXXLQXXLRSLRSEKMSVSDAEPVMLEQISRISQQIGYYLHRASMRGGTLLSRELHPVAPLLDNLTSALNKVYQRKGVNISLDISPEISFVGEQNDFVEVMGNVLDNACKYCLEFVEISARQTDEHLYIVVEDDGPGIPLSKREVIFDRGQRVDTLRPGQGVGLAVAREITEQYEGKIVAGESMLGGARMEVIFGRQHSAPKDE

Variants of: B1
Test: enrichment ratio after two sorts for PhoP signalling (ratio (wild type AVST 3.29)); higher = more functional
Conditions: with PhoP (E. coli)

Variant	enrichment ratio
GHNL	≤ 0.25
VCWT	≤ 0.25
ALME	7.51
ARRP	≤ 0.25
YVVT	≤ 0.25
PKRL	≤ 0.25
FELQ	8.46
THPI	≤ 0.25
ICVV	≤ 0.25
TSNQ	9.86
WHGN	≤ 0.25
QKGH	≤ 0.25
MSTS	0.73
PVHY	≤ 0.25
ESDN	≤ 0.25
GEFG	≤ 0.25
QYDY	≤ 0.25
EQES	≤ 0.25
FPVK	≤ 0.25
WKAH	≤ 0.25
IDAC	≤ 0.25
APTP	≤ 0.25
IYSQ	≤ 0.25
DDMS	≤ 0.25

Variant	enrichment ratio
ALCE	16.1
NHHT	≤ 0.25
MIGT	≤ 0.25
GLVH	≤ 0.25
TPNY	≤ 0.25
HFVG	≤ 0.25
APAY	≤ 0.25
AWLM	≤ 0.25
QCCN	≤ 0.25
VWMQ	≤ 0.25
QCAF	≤ 0.25
YQCG	≤ 0.25
TCHP	≤ 0.25
VLCL	0.464
YRNR	≤ 0.25
WSHM	≤ 0.25
IVYN	≤ 0.25
AHNN	≤ 0.25
RHRD	≤ 0.25
QQNM	16.3
DPRR	≤ 0.25
HHCS	≤ 0.25
IWGQ	≤ 0.25
SCQV	≤ 0.25

Variant	enrichment ratio
TKAL	10.3
MVRG	≤ 0.25
PVYQ	≤ 0.25
QDAT	≤ 0.25
PGCD	≤ 0.25
RHAC	≤ 0.25
ENPY	≤ 0.25
QDSM	≤ 0.25
MCNT	≤ 0.25
RSAY	≤ 0.25
DFPY	≤ 0.25
LCHK	≤ 0.25
ADAS	≤ 0.25
DQRY	≤ 0.25
RNFD	≤ 0.25
ICRI	≤ 0.25
YFDD	≤ 0.25
SLVF	≤ 0.25
PGGA	≤ 0.25
TVIW	≤ 0.25
SDYC	≤ 0.25
PVSL	≤ 0.25
DVIS	≤ 0.25
NDHM	≤ 0.25

Variant	enrichment ratio
WFHS	≤ 0.25
IKNP	≤ 0.25
AHKT	≤ 0.25
PQHD	≤ 0.25
RNGN	≤ 0.25
NAAM	≤ 0.25
NLQK	≤ 0.25
YHCD	≤ 0.25
ISCG	≤ 0.25
ENCA	≤ 0.25
YNAL	≤ 0.25
TIQP	≤ 0.25
ASMT	12
LLIS	≤ 0.25
GRGL	≤ 0.25
QIPC	≤ 0.25
TPCL	≤ 0.25
TWWP	≤ 0.25
WWSM	≤ 0.25
CYIL	≤ 0.25
REHM	≤ 0.25
VAAR	≤ 0.25
WHPQ	≤ 0.25
VLPA	≤ 0.25

Variant	enrichment ratio
HFIY	≤ 0.25
TQPT	≤ 0.25
IVLT	0.33
INAP	≤ 0.25
DWRY	≤ 0.25
VQYR	≤ 0.25
GCGP	≤ 0.25
GKRL	≤ 0.25
VRIV	≤ 0.25
ICKL	≤ 0.25
TADQ	≤ 0.25
PNQH	≤ 0.25
HFYR	≤ 0.25
PWQF	≤ 0.25
MAKL	≤ 0.25
FQMV	0.463
SAHY	≤ 0.25
ETYA	≤ 0.25
GMKT	≤ 0.25
HFSN	≤ 0.25
VTGI	≤ 0.25
TAVK	≤ 0.25
LRID	≤ 0.25
IWSY	≤ 0.25

Variant	enrichment ratio
FDTR	≤ 0.25
WNCS	≤ 0.25
HLYL	≤ 0.25
LKGN	≤ 0.25
PGKQ	≤ 0.25
QQNP	≤ 0.25
GTGL	1.73
HIMI	≤ 0.25
IWHT	≤ 0.25
MRIS	≤ 0.25
KRGI	≤ 0.25
KLKT	≤ 0.25
IEWR	≤ 0.25
PPCF	≤ 0.25
ATMV	9.43
QENS	≤ 0.25
NFNH	≤ 0.25
AHPI	≤ 0.25
INDV	≤ 0.25
NQCQ	≤ 0.25
MQRH	≤ 0.25
AEDY	≤ 0.25
MYMI	0.465
VFLI	≤ 0.25

Variant	enrichment ratio
GMGV	≤ 0.25
PGMT	≤ 0.25
RICT	≤ 0.25
VNLL	10.2
RGGS	≤ 0.25
MANW	≤ 0.25
HYCL	≤ 0.25
NMES	≤ 0.25
LRTH	≤ 0.25
SRDH	≤ 0.25
RVNE	≤ 0.25
VMTE	≤ 0.25
KAAW	≤ 0.25
NERC	≤ 0.25
QQVN	≤ 0.25
SRED	≤ 0.25
KHDV	≤ 0.25
WNYV	≤ 0.25
SGLY	8.86
DLDV	≤ 0.25
HKEM	≤ 0.25
LWGR	≤ 0.25
QSNQ	4.72
FSTW	≤ 0.25

Variant	enrichment ratio
YASR	≤ 0.25
MAPL	≤ 0.25
KHWM	≤ 0.25
WAYF	≤ 0.25
MHHT	≤ 0.25
LIPP	≤ 0.25
REEG	≤ 0.25
FTVP	≤ 0.25
YIPF	≤ 0.25
VMPL	≤ 0.25
AKQP	≤ 0.25
HQKA	≤ 0.25
WMPF	≤ 0.25
WWPT	≤ 0.25
KYWM	≤ 0.25
SHQE	≤ 0.25
FCSP	≤ 0.25
LNWW	≤ 0.25
VGYA	≤ 0.25
TMLD	≤ 0.25
MDLL	≤ 0.25
KEAW	≤ 0.25
PCHL	≤ 0.25
NFCV	≤ 0.25

Variant	enrichment ratio
GFPG	≤ 0.25
PMKI	≤ 0.25
HGYV	≤ 0.25
IFKF	≤ 0.25
DQNA	≤ 0.25
EVMP	≤ 0.25
DEAS	≤ 0.25
PDPY	≤ 0.25
NFDN	≤ 0.25
SCMK	6.72
YFRD	≤ 0.25
TCNC	14.3
GKCP	≤ 0.25
QVGV	≤ 0.25
NVKS	≤ 0.25
TINP	4.79
TFVQ	≤ 0.25
TKIA	2.15
RCPW	≤ 0.25
KEGR	≤ 0.25
KITN	≤ 0.25
ECDT	≤ 0.25
CFSF	≤ 0.25
EVCV	≤ 0.25

Variant	enrichment ratio
VCKQ	≤ 0.25
RQSG	≤ 0.25
DTVY	≤ 0.25
IDPC	≤ 0.25
DLCY	≤ 0.25
PEDA	≤ 0.25
RPLY	≤ 0.25
SKTQ	≤ 0.25
FDPK	≤ 0.25
IDSH	≤ 0.25
TFHN	≤ 0.25
VMQC	≤ 0.25
YQRN	≤ 0.25
ECTY	≤ 0.25
HKYH	≤ 0.25
LSVK	≤ 0.25
NNRY	≤ 0.25
WFRR	≤ 0.25
ISQN	≤ 0.25
SNSK	≤ 0.25
FVCM	2.91
SFHM	≤ 0.25
MVFF	≤ 0.25
RSWK	≤ 0.25

Variant	enrichment ratio
NTWM	≤ 0.25
MQCE	≤ 0.25
GWFN	≤ 0.25
NCPI	≤ 0.25
RFLD	≤ 0.25
PICM	≤ 0.25
YETG	≤ 0.25
LMEY	≤ 0.25
HSRV	≤ 0.25
QMTP	≤ 0.25
SFDD	≤ 0.25
LIVK	≤ 0.25
DYTL	≤ 0.25
PEHA	≤ 0.25
QSAT	≤ 0.25
GNPG	≤ 0.25
NRCF	≤ 0.25
YRFP	≤ 0.25
MQHN	≤ 0.25
PDVR	≤ 0.25
FEQT	≤ 0.25
SGPR	≤ 0.25
FHKR	≤ 0.25
EVYN	≤ 0.25

Variant	enrichment ratio
HFTD	≤ 0.25
VRQN	≤ 0.25
FQRW	≤ 0.25
RARN	≤ 0.25
SCVH	8.93
AHQA	≤ 0.25
TPFV	≤ 0.25
LTIP	≤ 0.25
AVTC	6.81
VATC	≤ 0.25
MLLL	6.44
WQKA	≤ 0.25
SECD	8.24
KGPL	≤ 0.25
RPCQ	≤ 0.25
GQIC	≤ 0.25
ESWP	≤ 0.25
LTRG	≤ 0.25
EANN	≤ 0.25
NVQG	≤ 0.25
APLL	≤ 0.25
QSRT	≤ 0.25
LGTR	≤ 0.25
YTIR	≤ 0.25

Variant	enrichment ratio
KEDY	≤ 0.25
WKDR	≤ 0.25
PHIK	≤ 0.25
IPLG	≤ 0.25
GEGK	≤ 0.25
GSMP	≤ 0.25
TGMN	34.8
NVHS	≤ 0.25
MFFR	≤ 0.25
YSTR	≤ 0.25
FILI	3.04
KNLT	≤ 0.25
KSDY	≤ 0.25
WWRF	≤ 0.25
QVTQ	≤ 0.25
YQFF	≤ 0.25
SSDG	≤ 0.25
QAFC	≤ 0.25
